Measured values as given in paper PMC3004914, “Classification of Drugs Based on Properties of Sodium Channel Inhibition: A Comparative Automated Patch-Clamp Study” (PLoS ONE, 2010).
Read-outs that look alike come from different tables or passages of the source.

How the values were obtained:
sodium channels = details: cited from earlier work; for Ki: read-out: Ki−Lit; for Kd: read-out: Kr−Lit
[1] = target: T1, rNav1.2 sodium channels (HEK-293 cells) (Rattus norvegicus, UniProt P04775); assay: 5 Hz train protocol, QPatch automated patch-clamp; assay type: cell-based
Source text: The dynamics of the onset and offset of inhibition was monitored using 5 Hz trains of five depolarizing pulses from a holding potential of −90 mV to −10 mV. The trains were repeated every 20 s. Drugs were applied after 10 control trains and 10 trains were delivered in the presence of the drug. The drug was then washed out, and the 10 trains were repeated.
We measured inhibition (Inh; from which we calculated IC50 values as described in Materials and Methods), reversibility of inhibition (Rev) and use-dependence (UD), as well as time constant of onset (τon) and offset (τoff). The calculation of IC50, quantification of Rev and UD, and the determination of time constants are illustrated in Figure 1A. Because τon should be concentration-dependent if we assume a single binding reaction, we excluded it from the analyses. […] Comments on the interpretation of these properties (Rev, […] and UD) are in Results S1.
(§1) A)–D) Peak amplitudes of evoked currents (5 Hz trains of 5 depolarizations from −90 to −10 mV) are plotted against time. Black dots: Control. Grey dots: Drug perfusion. […] Calculation of properties of inhibition is illustrated. […] E) Calculation of Kr and Ki values from steady-state availability curves.
(§2) HEK-293 cells stably expressing rNav1.2 sodium channels were obtained from NeuroSearch (Ballerup, Denmark).
(§3) Cells were automatically prepared for application to the chips (centrifuged and washed twice, then resuspended in extracellular solution) as described previously. Composition of the extracellular solution was: (in mM): 140 NaCl, 3 KCl, 1 CaCl2, 1 MgCl2, 0.1 CdCl2, 20 TEA-Cl, 5 HEPES, adjusted to pH 7.3, Osmolality: ∼320 mOsm.
All electrophysiological experiments were conducted on Qpatch-16 or QPatch HT instruments using QPlate™ chips. For a detailed description of the instrument and the patch-clamp chips see [37], [38]. Data were sampled at a frequency of 25 kHz and filtered at 5 kHz. […]
From this protocol we extracted five parameters, as illustrated in Figure 1A. We calculated inhibition of a single “cc” concentration: Inh = (amplitudectr – amplitudedrug)/amplitudectr.

[2] = target: T1, rNav1.2 sodium channels (HEK-293 cells); assay: steady-state inactivation protocol (availability curves), QPatch automated patch-clamp; assay type: cell-based
Source text: as §1
Standard steady-state inactivation protocols were used to measure the shift of steady-state availability curve caused by the drugs. Currents were evoked by a 10 ms test pulse to −10 mV, preceded by 400 ms pre-pulses from −150 to −30 mV. […] Because the inhibition at hyperpolarized potentials (Inh−150), and the shift of the availability curves (ΔV1/2) are both concentration-dependent properties, we calculated affinities to hyperpolarized and depolarized states (“resting state affinity”: Kr, and “inactivated state affinity”: Ki), which, on the other hand, are concentration-independent characteristics of individual drugs. Calculation of Kr and Ki values are described in Materials and Methods, and illustrated in Figure 1E. State-dependence (SD) was quantified as the ratio Kr/Ki.
as §2, §3
All electrophysiological experiments were conducted on Qpatch-16 or QPatch HT instruments using QPlate™ chips. For a detailed description of the instrument and the patch-clamp chips see [37], [38]. Data were sampled at a frequency of 25 kHz and filtered at 5 kHz. […] The amplifier was controlled and the data were collected by the Sophion QPatch client software. For initial data analysis the QPatch software was used. Built-in amplifiers provide an improved method for series resistance compensation. Leak subtraction (based on a standard P/n protocol) was used to subtract the capacitive component of currents.
Inactivated affinity (Ki) values were calculated assuming a simple four-state model of drug binding and channel gating, using two separate methods: (1) from the shift of the availability curve (ΔV1/2), the slope of the Boltzmann fit of the availability curve (k) and Kr, using the formula described by Bean, Cohen and Tsien (Ki−ΔV1/2; see Figure 1E), or (2) from the apparent affinity (Kapp) at a certain pre-pulse potential, which was calculated from the inhibition (e.g. Inh−60) as described above, and the availability (h) at the same pre-pulse potential, using the formula from Kuo and Bean (Figure 1E). […] (Arithmetic means and SEM values are given in Results S7.)

[3] = arithmetic mean, 30 µM, read-out: Ki-Kapp arith
[4] = arithmetic mean, 30 µM, read-out: Ki-ΔV1/2 arith
[5] = arithmetic mean, 30 µM, read-out: Kr arith
[6] = geometric mean, from Inh at −150 mV, 30 µM, read-out: Kr (resting state affinity)
[7] = geometric mean, from apparent affinity, 30 µM, read-out: Ki−Kapp (inactivated state affinity)
[8] = geometric mean, from shift of availability curve, 30 µM, read-out: Ki−ΔV1/2 (inactivated state affinity)

T1 sequence (P04775 whole entry): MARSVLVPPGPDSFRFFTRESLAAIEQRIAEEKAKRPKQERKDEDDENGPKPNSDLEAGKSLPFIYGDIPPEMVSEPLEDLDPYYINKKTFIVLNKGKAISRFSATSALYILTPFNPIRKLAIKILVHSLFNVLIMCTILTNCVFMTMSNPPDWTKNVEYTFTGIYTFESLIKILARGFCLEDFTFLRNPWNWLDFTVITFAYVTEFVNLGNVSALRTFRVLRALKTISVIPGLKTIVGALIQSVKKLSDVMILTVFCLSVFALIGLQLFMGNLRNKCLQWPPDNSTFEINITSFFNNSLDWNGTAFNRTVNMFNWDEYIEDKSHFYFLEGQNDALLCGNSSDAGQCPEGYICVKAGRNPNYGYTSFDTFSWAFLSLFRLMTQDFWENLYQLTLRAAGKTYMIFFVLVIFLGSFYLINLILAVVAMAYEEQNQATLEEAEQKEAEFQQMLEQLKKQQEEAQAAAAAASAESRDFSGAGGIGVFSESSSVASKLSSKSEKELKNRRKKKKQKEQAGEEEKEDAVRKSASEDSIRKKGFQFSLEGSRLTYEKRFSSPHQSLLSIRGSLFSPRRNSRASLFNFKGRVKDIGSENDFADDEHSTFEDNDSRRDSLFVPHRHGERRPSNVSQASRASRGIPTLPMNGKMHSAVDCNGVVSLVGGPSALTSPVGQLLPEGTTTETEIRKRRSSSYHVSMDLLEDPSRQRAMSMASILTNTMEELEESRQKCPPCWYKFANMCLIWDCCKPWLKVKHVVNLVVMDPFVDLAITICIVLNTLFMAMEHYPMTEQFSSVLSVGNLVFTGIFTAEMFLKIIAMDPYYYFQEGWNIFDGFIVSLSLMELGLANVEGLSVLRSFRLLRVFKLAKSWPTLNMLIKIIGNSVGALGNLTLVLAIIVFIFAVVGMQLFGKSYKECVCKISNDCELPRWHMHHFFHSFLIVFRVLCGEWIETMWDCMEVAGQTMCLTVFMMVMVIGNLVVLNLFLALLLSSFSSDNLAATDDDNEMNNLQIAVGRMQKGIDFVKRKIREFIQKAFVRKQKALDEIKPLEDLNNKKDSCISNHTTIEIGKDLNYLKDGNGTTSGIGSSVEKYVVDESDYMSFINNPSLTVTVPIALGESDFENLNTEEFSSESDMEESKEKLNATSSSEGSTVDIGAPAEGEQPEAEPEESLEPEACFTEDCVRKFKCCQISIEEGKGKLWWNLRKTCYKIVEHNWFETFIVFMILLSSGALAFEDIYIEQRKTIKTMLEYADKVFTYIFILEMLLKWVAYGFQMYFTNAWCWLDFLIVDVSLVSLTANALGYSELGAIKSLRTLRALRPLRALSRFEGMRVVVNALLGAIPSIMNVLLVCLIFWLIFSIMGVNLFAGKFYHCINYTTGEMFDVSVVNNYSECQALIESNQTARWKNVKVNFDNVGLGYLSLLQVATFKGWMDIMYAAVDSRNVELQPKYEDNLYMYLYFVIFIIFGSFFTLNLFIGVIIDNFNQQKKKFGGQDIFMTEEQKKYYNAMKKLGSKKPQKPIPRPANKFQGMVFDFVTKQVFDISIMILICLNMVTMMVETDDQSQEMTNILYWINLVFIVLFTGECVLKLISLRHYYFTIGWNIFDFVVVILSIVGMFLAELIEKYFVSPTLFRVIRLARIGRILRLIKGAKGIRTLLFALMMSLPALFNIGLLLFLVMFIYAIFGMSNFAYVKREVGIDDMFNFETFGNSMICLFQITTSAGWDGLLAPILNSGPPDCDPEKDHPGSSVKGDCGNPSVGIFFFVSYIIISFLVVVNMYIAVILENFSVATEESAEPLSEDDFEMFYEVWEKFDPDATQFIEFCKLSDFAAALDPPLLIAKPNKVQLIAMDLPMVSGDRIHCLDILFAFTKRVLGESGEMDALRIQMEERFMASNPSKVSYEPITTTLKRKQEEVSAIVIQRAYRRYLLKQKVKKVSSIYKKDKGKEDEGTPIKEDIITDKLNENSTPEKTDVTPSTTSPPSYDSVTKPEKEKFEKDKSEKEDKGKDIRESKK

Question: Which results are given for `CNCCC(Oc1ccc(C(F)(F)F)cc1)c1ccccc1` (centres unmarked) [FLX, Fluoxetine]?
Answer: Ki (sodium channels; averaged literature data): 1.2 µM; Kd (sodium channels; averaged literature data): 89.4 µM

Question: What does the source list for `CN1CCN2c3ccccc3Cc3ccccc3C2C1` (centres unmarked) [MIA, Mianserin]?
Answer: Ki (sodium channels; averaged literature data): 1.3 µM; Kd (sodium channels; averaged literature data): 190 µM

Question: For `Fc1ccc(C(c2ccc(F)cc2)N2CCN(C/C=C/c3ccccc3)CC2)cc1` [FLR, Flunarizine], which Ki (sodium channels; literature) is on record?
Answer: The Ki was < 0.2 µM.

Question: For `CN1CCN(C2=Nc3cc(Cl)ccc3Nc3ccccc32)CC1` [CLZ, Clozapine], which potency estimated from few doses ([1]; HEK293, calculated from Inh at single concentration 100 μM, −90 mV, read-out: IC50) is on record?
Answer: The potency estimated from few doses was 94.5 µM.

Question: And the Ki ([2]; arithmetic mean, 100 µM, read-out: Ki-Kapp arith)?
Answer: The Ki was 14.1 µM.

Question: And the Ki ([2]; arithmetic mean, 100 µM, read-out: Ki-ΔV1/2 arith)?
Answer: The Ki was 13.3 µM.

Question: What about the Kd ([2]; arithmetic mean, 100 µM, read-out: Kr arith) of the same molecule?
Answer: Its Kd is 255 µM.

Question: What about the Kd ([2]; geometric mean, from Inh at −150 mV, 100 µM, read-out: Kr (resting state affinity)) of the same molecule?
Answer: Its Kd is 249 µM.

Question: What about the Ki ([2]; geometric mean, from apparent affinity, 100 µM, read-out: Ki−Kapp (inactivated state affinity)) of the same molecule?
Answer: The Ki was 12.4 µM.

Question: And the Ki ([2]; geometric mean, from shift of availability curve, 100 µM, read-out: Ki−ΔV1/2 (inactivated state affinity))?
Answer: The Ki was 11 µM.

Question: For `CNCCCC12CCC(c3ccccc31)c1ccccc12` [MPR, Maprotiline], which Ki (sodium channels; averaged literature data) is on record?
Answer: Its Ki is 1.45 µM.

Question: What about the Kd (sodium channels; averaged literature data) of the same molecule?
Answer: Its Kd is 18.3 µM.

Question: Which results are given for `O=c1n(CCCN2CCN(c3cccc(Cl)c3)CC2)nc2ccccn12` [TRZ, Trazodone]?
Answer: Ki (sodium channels; literature): ~111 µM; Kd (sodium channels; literature): ~1000 µM

Question: With `CN[C@H]1CC[C@@H](c2ccc(Cl)c(Cl)c2)c2ccccc21` [SRT, Sertraline] as the molecule, how does the potency estimated from few doses ([1]; HEK293, read-out: IC50, calculated from Inh at single concentration 30 μM, −90 mV) read?
Answer: Its potency estimated from few doses is 14.3 µM.

Question: What about the Ki [2, 3] of the same molecule?
Answer: The Ki was 2.43 µM.

Question: And the Ki [2, 4]?
Answer: The Ki was 1.59 µM.

Question: And the Kd [2, 5]?
Answer: Its Kd is 57.4 µM.

Question: And the Kd [2, 6]?
Answer: The Kd was 56.4 µM.

Question: And the Ki [2, 7]?
Answer: Its Ki is 2.1 µM.

Question: What about the Ki [2, 8] of the same molecule?
Answer: Its Ki is 1.47 µM.

Question: Which Ki (sodium channels; averaged literature data) does the source give for `O=C(CCCN1CCC(O)(c2ccc(Cl)cc2)CC1)c1ccc(F)cc1` [HAL, Haloperidol] here?
Answer: The Ki was 0.28 µM.

Question: And the Kd (sodium channels; averaged literature data)?
Answer: The Kd was 7 µM.

Question: What about the potency estimated from few doses ([1]; HEK293, calculated from Inh at single concentration 30 μM, −90 mV, read-out: IC50) of the same molecule?
Answer: Its potency estimated from few doses is 20.4 µM.

Question: What about the Ki [2, 3] of the same molecule?
Answer: The Ki was 3.27 µM.

Question: And the Ki [2, 4]?
Answer: Its Ki is 16.6 µM.

Question: And the Kd [2, 5]?
Answer: The Kd was 128 µM.

Question: And the Kd [2, 6]?
Answer: The Kd was 113 µM.

Question: What about the Ki [2, 7] of the same molecule?
Answer: The Ki was 2.96 µM.

Question: And the Ki [2, 8]?
Answer: The Ki was 13.8 µM.
